This continues a long series; more values of the same kind are listed elsewhere.
Legend:
Rat [1] = assay: concentration in plasma after dosing; details: 2 h; dosed: 2-Methyltetrahydrofuran; 10 mg/kg; iv; Male; F344
Rat [2] = assay: concentration in plasma after dosing; details: 1 h; dosed: 2-Methyltetrahydrofuran; 10 mg/kg; oral; Female; F344
Rat [3] = assay: concentration in brain after dosing; details: 2 h; dosed: 2-Methyltetrahydrofuran; 30 mg/kg; oral; Male; F344
Rat [4] = assay: concentration in plasma after dosing; details: 8 min; dosed: 2-Methyltetrahydrofuran; 10 mg/kg; oral; Female; F344
Rat [5] = assay: concentration in brain after dosing; details: 8 min; dosed: 2-Methyltetrahydrofuran; 30 mg/kg; oral; Female; F344
Rat [6] = assay: concentration in brain after dosing; details: 1 h; dosed: 2-Methyltetrahydrofuran; 10 mg/kg; oral; Female; F344
Rat [7] = assay: concentration in brain after dosing; details: 1 h; dosed: 2-Methyltetrahydrofuran; 10 mg/kg; oral; Male; F344
Rat [8] = assay: concentration in plasma after dosing; details: 2 min; dosed: 2-Methyltetrahydrofuran; 10 mg/kg; oral; Male; F344
Rat [9] = assay: concentration in brain after dosing; details: 5 min; dosed: 2-Methyltetrahydrofuran; 400 mg/kg; oral; Male; F344
Rat [10] = assay: concentration in plasma after dosing; details: 0.5 h; dosed: 2-Methyltetrahydrofuran; 10 mg/kg; oral; Female; F344
Rat [11] = assay: concentration in plasma after dosing; details: 1 h; dosed: 2-Methyltetrahydrofuran; 10 mg/kg; oral; Male; F344
Rat [12] = assay: concentration in brain after dosing; details: 0.25 h; dosed: 2-Methyltetrahydrofuran; 10 mg/kg; oral; Female; F344
Rat [13] = assay: concentration in plasma after dosing; details: 2 h; dosed: 2-Methyltetrahydrofuran; 30 mg/kg; oral; Male; F344
Rat [14] = assay: concentration in brain after dosing; details: 0.5 h; dosed: 2-Methyltetrahydrofuran; 10 mg/kg; iv; Female; F344
Rat [15] = assay: concentration in plasma after dosing; details: 2.5 h; dosed: 2-Methyltetrahydrofuran; 10 mg/kg; oral; Male; F344
Rat [16] = assay: concentration in brain after dosing; details: 1.5 h; dosed: 2-Methyltetrahydrofuran; 10 mg/kg; oral; Male; F344
Rat [17] = assay: concentration in plasma after dosing; details: 20 min; dosed: 2-Methyltetrahydrofuran; 100 mg/kg; oral; Female; Harlan Sprague Dawley
Rat [18] = assay: concentration in plasma after dosing; details: 1.5 h; dosed: 2-Methyltetrahydrofuran; 10 mg/kg; iv; Male; F344
Rat [19] = assay: concentration in plasma after dosing; details: 10 min; dosed: Bromochloroacetic acid; 10 mg/kg; iv; Male; F344
Rat [20] = assay: concentration in plasma after dosing; details: 5 min; dosed: Bromochloroacetic acid; 10 mg/kg; iv; Male; F344
Rat [21] = assay: concentration in plasma after dosing; details: 2 min; dosed: Bromochloroacetic acid; 10 mg/kg; iv; Male; F344
Rat [22] = assay: concentration in plasma after dosing; details: dosed: Fluorotelomer alcohol 8+2, 160 mg/kg, oral, Female, Harlan Sprague Dawley
Rat [23] = assay: concentration in plasma after dosing; details: 12 h; dosed: Fluorotelomer alcohol 8+2; 24 mg/kg; oral; Male; Harlan Sprague Dawley
Rat [24] = assay: concentration in plasma after dosing; details: 1 h; dosed: Fluorotelomer alcohol 8+2; 24 mg/kg; oral; Male; Harlan Sprague Dawley
Rat [25] = assay: concentration in plasma after dosing; details: 0.5 h; dosed: Fluorotelomer alcohol 8+2; 160 mg/kg; oral; Female; Harlan Sprague Dawley
Rat [26] = assay: concentration in plasma after dosing; details: 3 h; dosed: Fluorotelomer alcohol 8+2; 24 mg/kg; oral; Male; Harlan Sprague Dawley
Rat [27] = assay: concentration in plasma after dosing; details: dosed: Formamide, 600 mg/kg, oral, Male, Harlan Sprague Dawley
Rat [28] = assay: concentration in plasma after dosing; details: dosed: Formamide, 30 mg/kg, iv, Female, F344
Rat [29] = assay: concentration in plasma after dosing; details: dosed: Formamide, 30 mg/kg, iv, Female, F344; remark: listed apart in the source
Rat [30] = assay: concentration in plasma after dosing; details: dosed: Formamide, 30 mg/kg, iv, Female, F344; remark: listed apart in the source
Rat [31] = assay: concentration in plasma after dosing; details: dosed: Formamide, 36 mg/kg, oral, Female, Harlan Sprague Dawley
Rat [32] = assay: concentration in plasma after dosing; details: 2 h; dosed: Formamide; 30 mg/kg; iv; Female; F344
Rat [33] = assay: concentration in plasma after dosing; details: dosed: Formamide, 600 mg/kg, oral, Female, F344
Rat [34] = assay: concentration in plasma after dosing; details: dosed: Formamide, 300 mg/kg, oral, Female, F344
Rat [35] = assay: concentration in plasma after dosing; details: dosed: Formamide, 300 mg/kg, oral, Female, Harlan Sprague Dawley
Rat [36] = assay: concentration in plasma after dosing; details: 1 h; dosed: Formamide; 300 mg/kg; oral; Female; F344
Rat [37] = assay: concentration in plasma after dosing; details: dosed: Formamide, 30 mg/kg, iv, Female, F344; remark: listed apart in the source
Rat [38] = assay: concentration in plasma after dosing; details: 50 min; dosed: Pyridine; 10 mg/kg; iv; Male; Harlan Sprague Dawley
Rat [39] = assay: concentration in plasma after dosing; details: dosed: Pyridine, 100 mg/kg, oral, Male, F344

CC1CCCO1 (stereo not given) [2-Methyltetrahydrofuran]
Details | concentration in brain [µg/g] | concentration in plasma [ng/mL]
Rat [1] | – | 209
Rat [2] | – | 705
Rat [3] | 2.42 | –
Rat [4] | – | 3900
Rat [5] | 12 | –
Rat [6] | 1.07 | –
Rat [7] | 0.708 | –
Rat [8] | – | 220
Rat [9] | 135 | –
Rat [10] | – | 3400
Rat [11] | – | 1390
Rat [12] | 3.25 | –
Rat [13] | – | 4110
Rat [14] | 1.98 | –
Rat [15] | – | 41.8
Rat [16] | 0.281 | –
Rat [17] | – | 47900
Rat [18] | – | 705

O=C(O)C(Cl)Br (stereo not given) [Bromochloroacetic acid]
Details | concentration in plasma [ng/mL]
Rat [19] | 5380
Rat [20] | 9020
Rat [21] | 22600

OCCC(F)(F)C(F)(F)C(F)(F)C(F)(F)C(F)(F)C(F)(F)C(F)(F)C(F)(F)F [Fluorotelomer alcohol 8+2]
Rat [22]
Details | concentration in plasma [ng/mL]
0.75 h | 1540
12 h | 917

Details | concentration in plasma [ng/mL]
Rat [23] | 10.7
Rat [24] | 373
Rat [25] | 506
Rat [26] | 143

NC=O [Formamide]
Details | concentration in plasma [ng/mL]
Rat [27], 1 h | 707000
Rat [27], 72 h | 26000
Rat [28], 1 h | 46000
Rat [28], 3 h | 34200
Rat [29], 1 h | 42600
Rat [29], 3 h | 31600
Rat [30], 10 min | 44600
Rat [30], 18 h | 12900
Rat [31], 10 min | 11700
Rat [31], 20 h | 16400
Rat [33], 0.5 h | 628000
Rat [33], 48 h | 138000
Rat [34], 10 min | 113000
Rat [34], 20 h | 151000
Rat [35], 8 h | 375000
Rat [35], 12 h | 300000
Rat [37], 10 min | 51700
Rat [37], 18 h | 10400

Details | concentration in plasma [ng/mL]
Rat [32] | 34400
Rat [36] | 184000

c1ccncc1 [Pyridine]
Details | concentration in plasma [ng/mL]
Rat [38] | 4690

Rat [39]
Details | concentration in plasma [ng/mL]
1 h | 49700
8 h | 64100
